Test results reported in the supplement of paper PMC11383711.
Some of the results follow. Binding of human antibodies (heavy:light variable regions, tested as scFv in one mRNA-display pool) to influenza hemagglutinin, with or without the stem antibody CR9114 bound first. Score = (mean enrichment − median) / interquartile range of that screen; higher = more enriched, 0 = typical non-binder. Active = above the paper's cut-off per screen: stems 28; unblocked H1 Solomon Islands 5, H1 Michigan 3, H3 5, H5 19, H7 2.85, both B 5; blocked 9, 7, H5 10, H7 10, B Phuket 10, B Lee 11.5. Scores are scaled within each screen and are no affinities; replicates correlate at about 0.6 to 0.9, and antibodies rare in the pool are noisier.

B1: W85-1E01 (protein)
chain 1: EVQLVESGGGLVRPGRSLTLSCATSGFTFGDYGLSWVRQAPGKGLEWVGFIRSKPYGATTEYAASVKGRFTISRDDSKSIAYLQMNSLKIEDTAVYFCGRDPHSGSYLDYWGQGTLVTVSS
chain 2: QSALTQPASVSGSPGQSITIFCTGTSSDVGGYNYVSWYQQHPGKAPKVMIYEVNNRPSGVSNRFSGSKSGNTASLTISGLQSEDEADYYCSSYTGSSTYVFGSGTKVTV
B2: 014-10-1B04 (protein)
chain 1: QLQESGPGLVKPSETLSLTCTVSGGSISGTSYYRVWIRQPPGKGLEWIGSIYYSGSTHYSPSLKSRVTITEDTSKNQFSLKMISVTAADAAVYYCATGPNFEAFDLWGQGTMVTVSS
chain 2: QSALTQPRSVSGSPGQSVTISCTGTSSDVGGYNYVSWYQQHPGKAPKLMIYDVSNRPSGVPDRFSGSKSGNTASLTISGLQAEDEADYYCCSYVGSNTFYVIFGGGTKLTVL
B3: W85-2B08 (protein)
chain 1: EVQLVESGGGLVQAGRSLRLSCTASGFTFGDYGMSWVRQAPGKGLEWVGFIRSKAYGGTTDFAASVKGRFIISRDDSKSIAYLQMHSLKTEDTAVYYCCRDPYSGSYIDSWGRGTLVTVSS
chain 2: QSALTQPASVSGSPGQSITISCTGTSSDIGGFKYVSWYQQHPGKAPKVMIYEVSDRPSGVSNRFSGSKSGNTASLTISGLQAEDEADYYCSSYTSSSTFVFGTGTKVTVL
B4: R95-1G06 (protein)
chain 1: EVQLVESGGGLVRPGGSLRLSCAASGFTFNSYGLNWVRQAPGKGLEWVSSIGSSFGYIYYADSVKGRFTISRDNAKSSLFLQMNSLRVEDTAVYYCTRDGDGYARFDHWGHGTLVSVSS
chain 2: SYELTQPPSVSVAPGQTARITCGGNSIGSKSVHWYQQKPGQAPVLVVYDDSDRPSGIPERFSGSNSGDTATLTISRVEAGDEADYYCQVWDSRSDHVVFGGGTKLTVL
B5: R95-1A10 (protein)
chain 1: EMALVESGGTVVQPGGSLTLSCEVSGFTFDDYAMHWVRQVPGKGLEWVSLISWDAGNTNYADSVKGRFNISRDNTRSILYLQMSSLRPEDTAIYYCTKDDGGGNYDYYRYMDVWGRGTTVTVS
chain 2: QSALTQPASESGSLGQSITISCTGTSGDVGGYNRVSWYQQHPGKAPRLVIYEGSKRPSGVSSRFSGSKSGNTASLTITGLQAEDEAEYFCSSYAGSITFVFGTGTKVNVL
B6: AG11-E04 (protein)
chain 1: VQLQESGPGLVKPSETLSLTCSVSGDSISSDYYWGWIRQPPGKGLEWIGSLYAGGITYYSPSLESRLSMAMDTSRNEFSMSLTSVTAADAAVYYCVRDRNILSREGFDFWGQGILVTVSS
chain 2: DIQMTQSPSSLSASVGDSVTITCRASQNIGFFLNWYRQKPGKAPELLVYLASTLQSGVPSRFSGGRSGTDFTLTISGLQPQDFATYFCQQSYENTPYTFGQGTKVEIK

target: Influenza A H1N1 A/Michigan/45/2015 hemagglutinin ectodomain; assay: mRNA display binding score; higher = more enriched on the antigen; settings: antigen blocked with: 2 µM CR9114 IgG
Procedure: (§1)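 A pool of natively paired antibodies, displayed as scFv on mRNA, was selected once on antigen-coated beads and sequenced before and after; two replicates.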

| Binder | mRNA display binding score |
| --- | --- |
| B1 | inactive: -0.00758 |
| B2 | active: 26.9 |
| B3 | inactive: -0.278 |
| B4 | inactive: -0.287 |
| B5 | inactive: -0.577 |
| B6 | inactive: -0.549 |

same assay, conditions: antigen blocked with: nothing

| Binder | mRNA display binding score |
| --- | --- |
| B1 | inactive: -0.585 |
| B2 | active: 5.41 |
| B3 | inactive: -0.47 |
| B4 | inactive: -0.374 |
| B5 | inactive: -0.738 |
| B6 | inactive: -0.486 |

target: Influenza A H1N1 A/Solomon Islands/3/2006 hemagglutinin ectodomain; assay: as above; settings: antigen blocked with: 2 µM CR9114 IgG
Procedure: as §1

| Binder | mRNA display binding score |
| --- | --- |
| B1 | inactive: -0.0346 |
| B2 | inactive: 0.459 |
| B3 | inactive: -0.339 |
| B4 | inactive: -0.7 |
| B5 | inactive: -0.493 |
| B6 | inactive: -0.557 |

same assay, conditions: antigen blocked with: nothing

| Binder | mRNA display binding score |
| --- | --- |
| B1 | inactive: 0 |
| B2 | inactive: 1.33 |
| B3 | inactive: -0.276 |
| B4 | inactive: -0.25 |
| B5 | inactive: -0.55 |
| B6 | inactive: -0.514 |

target: Influenza A H3N2 A/Singapore/INFIMH-16-0019/2016 hemagglutinin ectodomain; assay: as above; settings: antigen blocked with: nothing
Procedure: as §1

| Binder | mRNA display binding score |
| --- | --- |
| B1 | inactive: -0.331 |
| B2 | inactive: 0.294 |
| B3 | inactive: 0.0487 |
| B4 | inactive: -0.0577 |
| B5 | inactive: 0.207 |
| B6 | inactive: -0.492 |

target: Influenza A H5N1 A/Qinghai/1A/2005 hemagglutinin ectodomain; assay: as above; settings: antigen blocked with: 2 µM CR9114 IgG
Procedure: as §1

| Binder | mRNA display binding score |
| --- | --- |
| B1 | inactive: -0.775 |
| B2 | inactive: -0.717 |
| B3 | inactive: -0.5 |
| B4 | inactive: -0.603 |
| B5 | inactive: -0.559 |
| B6 | inactive: 0.0037 |

same assay, conditions: antigen blocked with: nothing

| Binder | mRNA display binding score |
| --- | --- |
| B1 | inactive: -0.382 |
| B2 | inactive: 2.46 |
| B3 | inactive: -0.582 |
| B4 | inactive: -0.601 |
| B5 | inactive: -0.481 |
| B6 | inactive: 0.43 |

target: Influenza A H7N9 A/Shanghai/2/2013 hemagglutinin ectodomain; assay: as above; settings: antigen blocked with: 2 µM CR9114 IgG
Procedure: as §1

| Binder | mRNA display binding score |
| --- | --- |
| B1 | inactive: 1.15 |
| B2 | inactive: 2.98 |
| B3 | inactive: 0.0332 |
| B4 | inactive: -1.3 |
| B5 | inactive: -0.858 |
| B6 | inactive: 0.000668 |

same assay, conditions: antigen blocked with: nothing

| Binder | mRNA display binding score |
| --- | --- |
| B1 | inactive: -0.282 |
| B2 | inactive: 0.00296 |
| B3 | inactive: -0.522 |
| B4 | inactive: -0.507 |
| B5 | inactive: -0.775 |
| B6 | inactive: -0.74 |

target: Influenza B/Lee/1940 hemagglutinin ectodomain; assay: as above; settings: antigen blocked with: 2 µM CR9114 IgG
Procedure: as §1

| Binder | mRNA display binding score |
| --- | --- |
| B1 | inactive: 0.0853 |
| B2 | inactive: 0.364 |
| B3 | inactive: -0.141 |
| B4 | inactive: -0.292 |
| B5 | inactive: 0.415 |
| B6 | inactive: -0.675 |

same assay, conditions: antigen blocked with: nothing

| Binder | mRNA display binding score |
| --- | --- |
| B1 | inactive: 0.312 |
| B2 | inactive: 2.79 |
| B3 | inactive: -0.364 |
| B4 | inactive: -0.158 |
| B5 | inactive: -0.227 |
| B6 | inactive: -0.209 |

target: Influenza B/Phuket/3073/2013 hemagglutinin ectodomain; assay: as above; settings: antigen blocked with: 2 µM CR9114 IgG
Procedure: as §1

| Binder | mRNA display binding score |
| --- | --- |
| B1 | inactive: 0.534 |
| B2 | inactive: -0.246 |
| B3 | inactive: -0.42 |
| B4 | inactive: -0.456 |
| B5 | active: 12.6 |
| B6 | inactive: 3.05 |

same assay, conditions: antigen blocked with: nothing

| Binder | mRNA display binding score |
| --- | --- |
| B1 | inactive: 0.0787 |
| B2 | inactive: 2.16 |
| B3 | inactive: 0.0505 |
| B4 | inactive: -0.386 |
| B5 | inactive: 4.94 |
| B6 | inactive: 2.9 |
